In the RNAGym collection of RNA variant scans (doi:10.1093/nar/gkz1192):
The source gives no read counts; variants with many changes may rest on few reads.

B1: CPEB3 Ribozyme (parent)
chain: UAACAGGGGGCCACAGCAGAAGCGUUCACGUCGCAGCCCCUGUCAGAUUCUGGUGAAUCUGCGAAUUCUGCUGUAUAUCUC

Variants of: B1
Assay: self-cleavage, relative activity (ratio to wild type); higher = more cleavage; in vitro, sequencing
Procedure, shortened: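 Relative activity compares each variant's cleaved/total read fraction with that of the unmutated ribozyme. To get these fractions, barcoded CPEB3 ribozyme libraries from rounds of error-prone PCR were transcribed with T7 RNA polymerase for 5 hours at 37°C and then given 15 min of DNase I treatment before EDTA was added. The RNAs were reverse transcribed with template switching and sequenced on Illumina, and DNA sequencing linked barcodes to variants. A minimum of 5 reads applied, and three batches were averaged.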

Variant | self-cleavage
A5U C27U U49C | 0.38
A5U C29A U41C | 0.36
A5U C29A U72G | 0.58
A5U C29U U31C A35U U72A U80C | 0.3
A5U C29U U41C A47G A56U U76A | 0.09
A5U C29U U74C A77U | 0.99
A5U C40G A47U U69C U78C | 0.1
A5U C44A A64G A75U | 0.52
A5U C44A A64U | 0.16
A5U C62U A64G U66C A77U | 0.12
A5U G6A A47G C50A U60C | 0.09
A5U G6A C29U U60C | 0.09
A5U G6C A35C U67C U80C | 0.38
A5U G6U U72A | 0.1
A5U G7A A18U U26C A35G U43C U54C | 0.35
A5U G7C C17U U31A U69C | 0.06
A5U G7C G8A A20G U67C G70C | 0.26
A5U G7U A20G G30U U54A C71U U72A | 0.04
A5U G8A A28U U69C | 0.08
A5U G8A U43C U72C | 0.56
A5U G8C A15U U69A | 0.38
A5U G8C C12A C59U U72A | 0.08
A5U G8U G9A A45U C62G | 0.31
A5U G8U U41A U67C U72A A77G | 0.08

Variant | self-cleavage
A5U G9A A47G U54C | 0.26
A5U G9A U43A U51A | 0.22
A5U G9A U78C C79U | 0.19
A5U G9C U25A U76G | 0.06
A5U G9U C32U U43A | 0.07
A5U G9U U25C A35U C38U U51A A56G | 0.14
A5U G9U U26C U41A U80C | 0.07
A5U G10A A18U U72A | 0.32
A5U G10A U26C A28G U58C U80C | 0.06
A5U G10C A28G A64G U74A | 0.04
A5U G16A U31C | 0.4
A5U G22A A28G | 0.37
A5U G22A A64G | 0.53
A5U G22C A28G G42A | 0.28
A5U G22C G70C | 0.21
A5U G24A A28U U51A A65G U72C | 0.1
A5U G30A U41A A77G U78C | 0.11
A5U G30A U51C U72C | 0.15
A5U G30U G33A U54G U76C | 0.13
A5U G36C A47U U54C C62U | 0.26
A5U G42U U74C | 0.24
A5U G52C A64G | 1.04
A5U G53A A56G U78A | 0.52
A5U G53A A57G | 0.99

Variant | self-cleavage
A5U G61C U76C | 0.71
A5U G63U U67A U76C | 0.97
A5U U25A A28U U54C U60A A75U | 0.08
A5U U25A A56U | 0.32
A5U U25A G33A A45G G46U U51C U58C | 0.17
A5U U25A U41C | 0.37
A5U U25A U51A A57G U60A | 0.12
A5U U25C A28C A64U A75G | 0.16
A5U U25C A35G A45G U76C | 0.46
A5U U25C A65G | 0.35
A5U U25C C39G U41C A64G | 0.09
A5U U25C C62U U72A | 0.35
A5U U25C U43C U58C A77U U80A | 0.1
A5U U25C U43C U69C | 0.12
A5U U25C U49A U58C U66C A77G | 0.05
A5U U25G C34U U51A U54A U78G | 0.06
A5U U25G U41C | 0.33
A5U U26A A45G | 0.86
A5U U26A A45U U72A | 0.49
A5U U26C A28G G30A U60C | 0.3
A5U U26C A28G U31A U78G | 0.11
A5U U26C A45C A64U U67C | 0.21
A5U U26C A47U U54A A65G | 0.13
A5U U26C A64U U69C | 0.14

Variant | self-cleavage
A5U U26C G30A U58C A64U U66C | 0.1
A5U U26C U31A A35G A45G A57G G61A | 0.22
A5U U26C U60C | 0.43
A5U U26G C27U U41A U51C U78C | 0.07
A5U U26G U49C G55C U69G U76C U80G | 0.04
A5U U31A G36U U41A A45U C68U | 0.17
A5U U31A U41C G53U A57U A65U U74A | 0.09
A5U U31C A35G A45G A65G | 0.32
A5U U31C U43C U74C U80G | 0.7
A5U U31C U49A U54A | 0.54
A5U U41A U54C A77U | 0.58
A5U U41A U60A A64G | 0.12
A5U U41A U78C | 0.3
A5U U41C U48C G52A U67C | 0.41
A5U U41C U67C U72C | 0.41
A5U U43A U49C G52A A65G | 0.45
A5U U43C U60G | 0.18
A5U U43C U69A U80C | 0.29
A5U U43G U51A U58C | 0.04
A5U U48A U67A | 0.54
A5U U48C U51C | 0.69
A5U U48G U72C | 0.51
A5U U49A U67C | 0.61
A5U U49A U72A U78A | 0.69

Variant | self-cleavage
A5U U49C A57G U58A A64C U80C | 0.15
A5U U49C G53A | 0.33
A5U U49C U51C | 0.32
A5U U49C U51C A56U U80C | 0.49
A5U U49C U54C U66C U80A | 0.17
A5U U49C U60C A64G | 0.18
A5U U49G C62U C68A | 0.25
A5U U51A G53C G61C U66C U69A | 0.58
A5U U51A U54C | 1.22
A5U U51A U76C | 0.84
A5U U51C U60A A75G | 0.32
A5U U54A U69C | 0.8
A5U U54C G61A U72C U80G | 0.83
A5U U54C U60C | 0.53
A5U U60A U80A | 0.98
A5U U66C A77G | 0.44
A5U U66C U72A A75U | 0.27
A5U U66G U67C | 0.33
A5U U67A A77G | 0.54
A5U U67A U72C | 0.13
A5U U69A A75U | 0.87
A5U U69A U78C | 0.72
A5U U69C U76G | 0.96
A5U U74A U80A | 1.29

Variant | self-cleavage
A5U U76C A77G | 0.95
G6A A13C U51C C81A | 0.1
G6A A13G A20G A47U | 0.24
G6A A13G A20G U26C U80A | 0.52
G6A A13G C44A U49C A64U A65G U69A | 0.09
G6A A13G U41C A65G U80C | 0.1
G6A A13U A18G U25C U31A U43G A45U | 0.04
G6A A13U A18G U49C | 0.06
G6A A13U G46A U51C U60C | 0.05
G6A A13U U26A G63C A64U | 0.17
G6A A13U U43C U69A | 0.12
G6A A13U U49C | 0.66
G6A A13U U49C U51C A65G | 0.07
G6A A15G A18C A21G U49C | 0.09
G6A A15G A21U U43C U80C | 0.27
G6A A15G A45C U78C | 0.23
G6A A15G A65G U78C U80C | 0.07
G6A A15G C40U A45G U48C U60A | 0.07
G6A A15G U31C U41A U72C | 0.13
G6A A15U A21G A64U U78C | 0.07
G6A A15U A28U A45C U51A C71U | 0.03
G6A A15U C29U A47G U67C | 0.08
G6A A15U G30A A64G C68U G70A U80C | 0.05
G6A A15U U43C U76A A77U | 0.04

Variant | self-cleavage
G6A A18G A20G A45G A56G A57G U80A | 0.26
G6A A18G A20U | 0.33
G6A A18G A47U A57U U80A | 0.05
G6A A18G A65G U76C | 0.06
G6A A18G G24A C40U U54G | 0.05
G6A A18G U25C U43A U49C | 0.06
G6A A18U C59A | 0.26
G6A A18U U25C A35G A45C | 0.04
G6A A18U U31G U66C U72C | 0.06
G6A A18U U41G U48C U69C | 0.15
G6A A18U U69A | 0.35
G6A A20G C38U A64C U67A | 0.1
G6A A20G U76C | 0.09
G6A A20U C40U U80C | 0.22
G6A A21G A56G G73A | 0.16
G6A A21G C39A | 0.31
G6A A21G G30A | 0.05
G6A A21G U41A A47U U74C A75C | 0.23
G6A A21G U48C U60C | 0.38
G6A A21U A28G U41G G52U | 0.05
G6A A21U U49C U67C | 0.11
G6A A28C C39A A64G U69A | 0.05
G6A A28U A64G | 0.14
